Measurements reported in ChEMBL document CHEMBL1201862, “PubChem BioAssay data set” (2004).

What follows are molecules tested on NCI-H322M (assay: DTP human tumour cell line panel, 48 h).

Row | Compound | GI50
1 | O=C1Nc2ccc(Cl)cc2/C1=C\c1c(Cl)nc2sccn12 | active: < 0.01 µM
2 | Cc1cc2c(c(/C=N/c3ccc([N+](=O)[O-])cc3)c1)OC1(C=C2)Oc2ccccc2C(=O)N1C (configuration not stated) | inactive: 17.7 µM
3 | COc1ccc(/C=C/[N+](=O)[O-])cc1 | inactive: 17.4 µM
4 | O=C1OC2(OC2c2ccccc2)c2ccccc21 (configuration not stated) | inactive: > 100 µM
5 | Cc1ccc(S(=O)(=O)C(C#N)c2nc3ccccc3nc2-n2cccn2)cc1 (configuration not stated) | inactive: > 100 µM
6 | OC[C@H]1NC[C@@H](O)[C@@H](O)[C@H]1O | inactive: > 100 µM
7 | O=c1cc(-c2ccccc2)oc2ccc(-c3ccc4oc(-c5ccccc5)cc(=O)c4c3)cc12 | inactive: 23.8 µM
8 | CC(C)CCCCCCCCCCCCC(=O)NCC(=O)NC1C(C)OC(Nc2[nH]cnc3ncnc2-3)C(O)C1O (configuration not stated) | active: 0.00141 µM
9 | O=C1OC(c2ccccc2)=N/C1=C\c1cc(Cl)ccc1Cl | inactive: > 100 µM
10 | O=C1C2C3C=C4c5ccccc5N(c5ccccc5)C4(C2C(=O)N1c1ccc([N+](=O)[O-])cc1)[C@H]1C(=O)N(c2ccc([N+](=O)[O-])cc2)C(=O)[C@@H]31 (some centres not stated) | inactive: > 100 µM
11 | COCC(O)Cn1ccnc1[N+](=O)[O-] (configuration not stated) [MISONIDAZOLE] | inactive: > 100 µM
12 | O=[N+]([O-])c1ccc(O)c(/C=N/c2nc(-c3ccccc3)cs2)c1 | inactive: 19.8 µM
13 | CC[C@@H]1CC[C@@H]2[C@H](CC[C@]3(C)[C@@H](O)CC[C@@H]23)[C@H]1CO | inactive: > 100 µM
14 | c1cc(-c2cscc2-c2ccsc2)cs1 | inactive: > 100 µM
15 | COc1ccc2c(c1)CCN1CCCc3ccc(OC)cc3C21 (configuration not stated) | inactive: 86.1 µM
16 | Nc1ncnc2c1ncn2CCOC(c1ccccc1)P(=O)(O)O (configuration not stated) | inactive: > 100 µM
17 | Cc1c(-c2c(C)c3ccccc3n2S(=O)(=O)c2ccccc2)n(S(=O)(=O)c2ccccc2)c2ccccc12 | inactive: > 32.9 µM
18 | FC(F)(F)c1ccc2nc(Nc3ccc(Cl)c(Cl)c3)c(-c3ccccc3)nc2c1 | inactive: 54.8 µM
19 | CC1=CC(=O)[C@@H](O)[C@]2(C)[C@H]3[C@@]4(O)OC[C@]35[C@H]([C@@H](C)[C@H]4O)[C@@H](OC(=O)C(C)(C)CO)C(=O)O[C@@H]5C[C@@H]12 | inactive: 4.24 µM
20 | COc1ccc(NC2Oc3cc4c(cc3C(c3cc(OC)c(OC)c(OC)c3)C2C)OCO4)cc1 (configuration not stated) | active: 0.343 µM
21 | Cc1[nH]nc(C(=O)N/N=C/c2cccs2)c1/N=N\N(C)C | inactive: 38.5 µM

Row | Compound | GI50
22 | CS(=O)(=O)c1ccc(COP(N)(=O)N(CCCl)CCCl)cc1 (configuration not stated) | inactive: > 100 µM
23 | C=CCC(C(=O)O)c1ccccc1 (configuration not stated) | inactive: > 100 µM
24 | CCC1(O)C(=O)OCc2c1cc1n(c2=O)Cc2cc3ccc(C=O)cc3nc2-1 (configuration not stated) | inactive: 6.59 µM
25 | COC(C)(C)[C@H](O)C(O)CC(C)[C@@H]1CCC23CC12CCC1[C@@]2(C)CCC(OC(C)=O)C(C)(C)C2CC(OC2OC(COC(C)=O)C(O)C(O)C2O)[C@]13C (some centres not stated) | inactive: 1.61 µM
26 | Nc1nccc(Nc2ccc(S(N)(=O)=O)cc2)n1 | inactive: > 100 µM
27 | C[C@H]1C(OCCOC2O[C@@H]3O[C@@]4(C)CC[C@H]5[C@H](C)CCC([C@H]2C)[C@@]35O4)O[C@@H]2O[C@@]3(C)CC[C@H]4[C@H](C)CCC1[C@@]24O3 (some centres not stated) | inactive: 54 µM
28 | CCOC(=O)N1CCC2(CC1)C[C@@](C(C)=O)(c1ccccc1)C(C)O2 (some centres not stated) | inactive: > 100 µM
29 | CCC1(O)CC(O)c2c(O)c3c(c(O)c2C1C(=O)OC)C(=O)c1cccc(O)c1C3=O (configuration not stated) | inactive: 3.72 µM
30 | Cc1nc2ccc(Br)cc2c(=O)n1-c1ccc(N)cc1 | inactive: > 100 µM
31 | C=CCNC1=NC(=O)C(CC(=O)Nc2cccc(Cl)c2)S1 (configuration not stated) | inactive: > 100 µM
32 | CCOC(=O)C(NCc1ccccc1)(NC(=O)c1ccccc1)C(F)(F)F (configuration not stated) | inactive: > 100 µM
33 | Cc1cc(NS(=O)(=O)c2ccc(NC(=O)c3ccc4nc5ccccc5c(Nc5ccc(S(=O)(=O)Nc6cc(C)on6)cc5)c4c3)cc2)no1 | inactive: > 50 µM
34 | CCCCC(Sc1cc(Cl)c(C)cc1S(=O)(=O)Nc1nc(N)n[nH]1)C(=O)OC (configuration not stated) | inactive: > 10 µM
35 | CNS(=O)(=O)NN(C)S(=O)(=O)c1ccc(OC)cc1 | inactive: > 100 µM
36 | CC(=O)Nc1ccc2c(c1)C(=O)c1cccc(F)c1-2 | inactive: 42.5 µM
37 | COC(=O)C1=C(O)C(C(=O)OC)[C@]2(O)[C@H](C(=O)OC)[C@H]1C[C@@H](c1ccc(OC)cc1)[C@H]2C(=O)OC (some centres not stated) | inactive: 26.5 µM
38 | O=C(c1ccc(Cl)cc1)N(C(=S)N1CCN(c2ccccc2)CC1)C1CCCCC1 | inactive: > 100 µM
39 | O=C1C(=O)N(C(=O)c2ccc(Cl)c(Cl)c2)c2ccc(Cl)cc21 | inactive: > 100 µM
40 | N#Cc1c(-c2ccccc2)c(C#N)c(=S)n(C2OC(CO)C(O)C(O)C2O)c1N (configuration not stated) | inactive: > 100 µM
41 | CS(=O)(=O)OC1CCC2(C#N)CCC1C2=O (configuration not stated) | inactive: > 100 µM
42 | CC1C(NNc2ccccc2)Oc2cc3c(cc2C1c1ccccc1O)OCO3 (configuration not stated) | inactive: 4.3 µM

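Where inhibition never reached the appropriate level, the endpoint shown equals the highest concentration tested. Otherwise, values were interpolated linearly from a five-concentration, 48-hour dose response in 96-well plates. At the GI50, growth is halved.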 Active and inactive are the calls of the source. Rule as the data show it: active = GI50 up to about 1.1 µM and inactive = higher.
